Measured values as given in the supplement of paper PMC12217912.
This is one part of the list. Sequences were assembled here from the parent chain. Values near 0.05 are background.

B1: TEV protease; numbered along this chain (parent)
chain: MGESLFKGPRDYNPISSSICHLTNESDGHTTSLYGIGFGPFIITNKHLFRRNNGTLVVQSLHGVFKVKDTTTLQQHLVDGRDMIIIRMPKDFPPFPQKLKFREPQREERICLVTTNFQTKSMSSMVSDTSCTFPSGDGIFWKHWIQTKDGQCGSPLVSTRDGFIVGIHSASNFTNTNNYFTSVPKNFMELLTNQEAQQWVSGWRLNADSVLWGGHKVFMVKPEEPFQPVKEATQL

Variants of: B1
Assay: raw area under fraction-flipped curve 0-4 h after induction (AUC4h, not background-subtracted), DNA-recorder readout of cleavage of the substrate (dimensionless); higher = more cleavage of the substrate by the protease variant
Settings: temperature: 34 °C; time window: 0-4 h after rhamnose induction
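Also: Bxb1 expression induced with 0.2% (w/v) L-rhamnose at OD600 near 0.5, cultures sampled hourly, flipped fraction per protease–substrate barcode pair counted by paired-end Illumina sequencing.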

Row | Variant | area with substrate ENLYFDS | area with substrate ENLYFES | area with substrate ENLYFGS | area with substrate ENLYFHS | area with substrate ENLYFIS | area with substrate ENLYFMS | area with substrate ENLYFPS | area with substrate ENLYFSS | area with substrate ENLYFTS | area with substrate ENLYFVS | area with substrate ENLYFWS | area with substrate ENLYFKS | area with substrate ENLYFLS | area with substrate ENLYFCS | area with substrate ENLYFFS | area with substrate ENLYFRS | area with substrate ENLYFYS | area with substrate ENLYFNS
1 | M125S | 0.0589 | 0.0578 | 0.0569 | 0.0561 | 0.0629 | 0.0777 | 0.0507 | 0.0511 | 0.0648 | 0.0615 | 0.0504 | – | – | – | – | – | – | –
2 | M188E | 0.0585 | – | 0.0455 | – | 0.0538 | – | 0.0668 | – | 0.0627 | 0.0319 | 0.0452 | 0.0579 | 0.0616 | – | – | – | – | –
3 | N175E | 0.0772 | 0.0594 | – | – | 0.068 | 0.0573 | 0.0653 | – | 0.0428 | – | 0.0617 | 0.0594 | – | 0.0692 | 0.0649 | 0.0668 | 0.0589 | –
4 | L190R | – | 0.0663 | – | 0.0643 | 0.0519 | – | 0.0542 | – | 0.0538 | 0.0482 | – | 0.0624 | 0.0686 | 0.0556 | – | 0.0505 | 0.0586 | 0.074
5 | N24M | 0.0758 | 0.0749 | – | – | 0.0492 | 0.0633 | – | – | – | – | – | 0.0476 | 0.0548 | – | – | – | – | 0.06
6 | S182N | 0.0294 | 0.0529 | – | 0.0569 | 0.0453 | 0.0654 | 0.0553 | – | 0.0509 | 0.0447 | 0.0707 | 0.0331 | – | – | 0.0731 | 0.0457 | – | 0.0568
7 | L77W | 0.0708 | – | 0.0634 | – | 0.0597 | 0.0567 | 0.0553 | 0.0522 | 0.0505 | 0.0658 | 0.052 | – | 0.063 | – | 0.081 | – | 0.0585 | –
8 | T30N | 0.0625 | 0.0679 | – | 0.0587 | 0.0597 | – | 0.0636 | – | 0.0532 | 0.052 | 0.0523 | 0.0577 | 0.0636 | – | 0.0574 | 0.0611 | – | 0.0642
9 | F173M | – | 0.0613 | – | – | 0.0481 | 0.08 | 0.0559 | 0.0571 | – | – | 0.071 | – | – | 0.0503 | – | – | – | –
10 | M83C | 0.0567 | 0.0752 | – | – | 0.0536 | 0.0572 | 0.0595 | 0.0676 | 0.0597 | 0.0145 | 0.0445 | – | 0.0554 | – | – | 0.053 | – | 0.0795
11 | F180W | 0.0564 | 0.098 | – | 0.0569 | 0.0498 | – | 0.0546 | 0.0685 | 0.0546 | – | – | 0.0651 | – | 0.0519 | 0.0616 | – | – | 0.0623
12 | V183R | 0.0568 | 0.0636 | 0.0412 | – | 0.0485 | – | 0.0426 | 0.0355 | – | – | – | – | – | 0.0663 | 0.0449 | 0.0545 | 0.0478 | 0.0405
13 | V165A | 0.0584 | 0.047 | – | 0.05 | 0.0533 | 0.0473 | 0.0434 | 0.0592 | 0.0499 | – | 0.0366 | 0.0571 | – | – | – | – | 0.0608 | 0.0495
14 | Q74C | 0.0372 | 0.0651 | – | – | 0.0574 | 0.0792 | 0.0585 | 0.0623 | 0.0661 | – | 0.0446 | 0.0536 | – | – | – | 0.052 | 0.0706 | 0.0725
15 | V210S | 0.0633 | – | 0.0508 | 0.0403 | 0.0559 | 0.0493 | 0.0832 | – | 0.0547 | – | – | 0.0468 | 0.0554 | 0.0607 | 0.0767 | – | 0.06 | 0.0629
